Results: the supplement of paper PMC12217912
The list shows a part of the results. Sequences were assembled here from the parent chain. Values near 0.05 are background.

B1: TEV protease; numbered along this chain (parent)
chain: MGESLFKGPRDYNPISSSICHLTNESDGHTTSLYGIGFGPFIITNKHLFRRNNGTLVVQSLHGVFKVKDTTTLQQHLVDGRDMIIIRMPKDFPPFPQKLKFREPQREERICLVTTNFQTKSMSSMVSDTSCTFPSGDGIFWKHWIQTKDGQCGSPLVSTRDGFIVGIHSASNFTNTNNYFTSVPKNFMELLTNQEAQQWVSGWRLNADSVLWGGHKVFMVKPEEPFQPVKEATQL

Variants of: B1
Assay: raw area under fraction-flipped curve 0-4 h after induction (AUC4h, not background-subtracted), DNA-recorder readout of cleavage of the substrate (dimensionless); higher = more cleavage of the substrate by the protease variant
Conditions: temperature: 34 °C; time window: 0-4 h after rhamnose induction
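Further: Bxb1 expression induced with 0.2% (w/v) L-rhamnose at OD600 near 0.5, cultures sampled hourly, flipped fraction per protease–substrate barcode pair counted by paired-end Illumina sequencing.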

Row | Variant | area with substrate ENAYFQS | area with substrate ENCYFQS | area with substrate ENDYFQS | area with substrate ENEYFQS | area with substrate ENFYFQS | area with substrate ENGYFQS | area with substrate ENHYFQS | area with substrate ENIYFQS | area with substrate ENMYFQS | area with substrate ENPYFQS | area with substrate ENQYFQS | area with substrate ENRYFQS | area with substrate ENSYFQS | area with substrate ENTYFQS | area with substrate ENWYFQS | area with substrate ENNYFQS | area with substrate ENVYFQS | area with substrate ENYYFQS | area with substrate ENKYFQS
1 | F180I | 0.0559 | 0.0461 | 0.0682 | 0.0513 | 0.0563 | 0.0436 | 0.0674 | 0.0425 | 0.0405 | 0.0568 | 0.0518 | 0.0525 | 0.0258 | 0.0297 | 0.045 | – | – | – | –
2 | T181G | 0.0555 | – | 0.0451 | 0.0511 | 0.0538 | 0.0502 | – | – | 0.0464 | – | 0.0569 | 0.0775 | 0.0643 | – | – | 0.0594 | 0.0624 | 0.0579 | –
3 | S182W | 0.0449 | – | 0.0226 | 0.0493 | – | 0.0614 | 0.0606 | – | 0.0623 | 0.0351 | 0.0586 | 0.0606 | 0.0814 | – | 0.0218 | – | – | – | 0.0349
4 | V183C | 0.065 | 0.0608 | 0.0596 | 0.0604 | 0.0616 | 0.0668 | 0.0685 | 0.102 | – | 0.0591 | 0.0388 | – | 0.0552 | 0.0692 | 0.0682 | 0.0636 | 0.0685 | 0.0615 | –
5 | M188L | 0.0369 | 0.0725 | 0.0605 | 0.0548 | – | – | – | – | – | 0.0576 | 0.0596 | 0.0567 | – | 0.0701 | – | 0.0668 | 0.0685 | – | –
6 | E189I | 0.0777 | – | – | 0.0598 | 0.0361 | – | – | 0.142 | – | 0.062 | – | – | 0.0646 | – | – | 0.0693 | 0.0776 | 0.0494 | –
7 | E189V | 0.0499 | 0.0538 | 0.0591 | 0.0505 | 0.0672 | 0.0603 | 0.0626 | 0.0984 | – | 0.054 | 0.035 | 0.0605 | 0.0894 | – | 0.0404 | 0.0615 | – | – | –
8 | L191I | 0.0572 | 0.0668 | – | 0.0584 | 0.0481 | – | 0.0536 | – | – | 0.0596 | 0.0564 | 0.0436 | 0.0746 | – | – | 0.0655 | – | – | –
9 | L191T | 0.0618 | 0.0649 | 0.065 | 0.0686 | 0.0496 | 0.0312 | – | – | – | 0.07 | 0.0601 | 0.039 | 0.0585 | 0.0642 | 0.0557 | 0.0592 | 0.0606 | 0.0563 | 0.0337
10 | T192D | 0.0454 | 0.0582 | 0.0572 | – | 0.0691 | 0.0573 | 0.0607 | 0.0925 | – | 0.0685 | 0.0579 | – | 0.0651 | 0.0702 | 0.0428 | – | 0.0644 | – | 0.0554
11 | T192P | 0.0621 | 0.0676 | 0.0721 | 0.0601 | 0.0666 | – | – | 0.0818 | 0.0648 | 0.0498 | 0.0663 | 0.0376 | 0.0635 | 0.0595 | 0.0654 | 0.061 | 0.0576 | – | –
12 | T192Y | 0.0413 | 0.0694 | 0.0743 | 0.0599 | 0.0579 | – | 0.0526 | – | – | – | – | – | – | 0.0615 | – | – | – | – | 0.0636
13 | N193P | 0.0653 | 0.0666 | 0.0268 | 0.0625 | 0.0583 | 0.0627 | 0.0718 | – | 0.0396 | 0.0627 | 0.0687 | 0.0446 | 0.0705 | 0.0659 | – | 0.0695 | 0.0427 | 0.0557 | –
14 | E195D | 0.0638 | 0.0659 | 0.0636 | 0.0488 | 0.0518 | – | 0.0698 | 0.0897 | 0.0673 | – | 0.0563 | 0.0564 | 0.0488 | 0.0694 | 0.0055 | 0.0558 | 0.0803 | 0.0556 | 0.0522
15 | A196N | 0.0564 | 0.0588 | 0.0613 | 0.0547 | 0.0688 | 0.0661 | 0.056 | – | – | 0.0631 | 0.0584 | – | 0.0868 | 0.0619 | – | 0.063 | 0.0639 | – | 0.0556
16 | Q197C | 0.0445 | 0.0622 | 0.0427 | 0.0598 | 0.0591 | 0.0484 | 0.0352 | 0.14 | – | – | 0.0633 | 0.0598 | 0.0629 | 0.0659 | – | 0.0577 | – | – | –
17 | Q198Y | 0.0611 | 0.0509 | 0.0689 | 0.061 | – | 0.0525 | 0.0618 | 0.0887 | 0.0648 | 0.0574 | 0.0734 | 0.0539 | 0.0595 | 0.0568 | 0.0459 | 0.0576 | 0.0576 | 0.0651 | 0.0594
18 | S201P | 0.0624 | 0.0677 | 0.0614 | 0.0597 | 0.062 | 0.0525 | – | – | 0.0536 | 0.0581 | 0.0632 | 0.0694 | 0.0618 | 0.0608 | 0.0545 | 0.0681 | 0.0554 | – | 0.0687
19 | G202V | 0.058 | – | 0.048 | 0.076 | – | – | 0.0657 | 0.0648 | – | 0.0564 | 0.0547 | 0.0652 | – | 0.0394 | 0.0496 | 0.0581 | – | 0.0353 | 0.0639
20 | R204E | 0.064 | – | 0.061 | 0.0613 | – | – | – | – | – | 0.0668 | 0.0634 | 0.0675 | 0.0587 | 0.0719 | – | 0.065 | 0.0847 | – | 0.0579
21 | R204N | 0.0632 | 0.0792 | 0.0575 | 0.0592 | 0.0769 | 0.0606 | 0.0602 | 0.101 | 0.0902 | – | 0.0592 | 0.055 | 0.0701 | 0.0644 | – | 0.06 | 0.0811 | 0.0584 | 0.051
22 | L205N | 0.0604 | 0.0686 | 0.046 | 0.0473 | 0.0636 | – | 0.0712 | – | 0.0749 | – | 0.057 | – | – | 0.072 | – | 0.0551 | – | – | –
23 | S209C | 0.116 | – | 0.058 | 0.0616 | 0.0663 | 0.0711 | 0.048 | 0.0975 | 0.0947 | – | 0.0593 | 0.0641 | 0.0579 | 0.057 | 0.0659 | – | 0.0645 | – | 0.0725
24 | V210D | 0.0635 | 0.0658 | 0.0571 | 0.0645 | 0.0611 | 0.0574 | 0.0554 | – | – | – | 0.0557 | 0.0682 | 0.0448 | – | 0.052 | 0.0706 | 0.0823 | 0.0642 | 0.0531
25 | V210G | 0.0652 | – | 0.0598 | 0.0503 | 0.0574 | 0.0685 | – | 0.0733 | – | – | 0.053 | – | 0.0523 | – | – | – | 0.0726 | 0.066 | –
26 | G213A | 0.0601 | 0.0601 | 0.0616 | 0.056 | 0.057 | 0.0742 | 0.0594 | 0.0464 | 0.0633 | – | 0.0645 | 0.0595 | 0.0769 | 0.0667 | 0.0497 | 0.0594 | 0.0571 | 0.0313 | 0.0807
